Assay [1] deals with T1, recombinant soluble human KIT extracellular domain (KIT-ECD), C-terminal 6His tag (human, UniProt P10721 partial chain, biotinylated in the yeast display assays (sites not given)).
T1 construct: range 26-509; Made in High Five insect cells with a baculovirus, purified on Ni-NTA; major protein of 60 kD; Monovalent; also called c-KIT ECD; recombinant KIT
Description: ELISA, scFv-Fc on coated KIT-ECD.

For assay [2], the target named is T1, recombinant soluble human KIT …. The assay can be described thus: SPR (Biacore 3000), scFv-Fc captured by anti-human Fc, KIT-ECD 20 to 330 nM as analyte.
Assay [3] shares this target. The assay can be described thus: ELISA, bivalent scFv-Fc on monovalent KIT-ECD adsorbed on plastic; apparent Kd from the EC50. On the technique in general: ELISA stands for enzyme-linked immunosorbent assay.
The target is the same in assay [4]. Description: SPR (Biacore 3000), scFv-Fc captured by anti-human Fc, KIT-ECD as analyte, Langmuir 1:1 fit; intrinsic affinity.
Assay [5] has the same target. Description: SPR (BIACORE 3000), scFv-Fc captured on anti-human IgG (Fc), KIT-ECD as analyte, 1:1 Langmuir fit [panel B].
For assay [6] the target is unchanged. The assay can be described thus: ELISA, scFv-Fc on coated KIT-ECD. The source holds these as a separate data set.

Where two headings read alike, the source gives them in different places.

T1 sequence (P10721 other isoform, or with tags, fused parts or gaps limits assumed): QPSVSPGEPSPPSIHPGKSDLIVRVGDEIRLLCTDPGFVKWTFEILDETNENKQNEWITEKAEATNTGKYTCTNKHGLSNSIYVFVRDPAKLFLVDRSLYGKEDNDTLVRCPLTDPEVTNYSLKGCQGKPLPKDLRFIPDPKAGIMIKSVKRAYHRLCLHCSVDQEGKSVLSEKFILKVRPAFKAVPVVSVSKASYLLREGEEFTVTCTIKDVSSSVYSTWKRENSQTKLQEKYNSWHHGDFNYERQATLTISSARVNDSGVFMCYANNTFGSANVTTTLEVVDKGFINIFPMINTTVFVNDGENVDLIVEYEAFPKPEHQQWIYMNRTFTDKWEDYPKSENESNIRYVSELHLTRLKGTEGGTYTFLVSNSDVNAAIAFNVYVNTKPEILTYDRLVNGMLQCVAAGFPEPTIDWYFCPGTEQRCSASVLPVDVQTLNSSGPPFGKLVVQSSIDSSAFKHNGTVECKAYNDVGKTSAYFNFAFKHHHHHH

B1: 3G1-Fc (bivalent scFv-Fc of anti-KIT scFv 3G1) (Fc fusion, human)
chain: MAQVQLVESWGGVAQPGRSLRLSCAASGFTFSSFAMHWVRQAPGKGLEWVAVTSYDGSNEYYADSVKGRFTISRDNSKNTLYLQMNSLRAEDTAVYYCAKAMVRGVTFGDLDYWGQGTLVTVSSGGGGSGGGGSGGGGSSELTQDPAVSVALGQTVRITCQGDSLRSYYASWYQQKPEQAPVLVIYGENSRPSGIPDRFSGSSSGNTASLTITGAQAEDEADYYCNSRDSSGTHLRVFGGGTKLTVLG[human IgG1 Fc not spelt out]
notes: domain: hinge domain and the 2 constant domains; also called 3G1 scFv-Fc; 3G1-scFv-Fc
For the molecule B1, in assay [1], the EC50 came to 0.24 µg/mL. For the same molecule, the koff in assay [2] amounted to 0.00521 s⁻¹. The results for the Kd in assay [3], in assay [4] and in assay [5] were 2.18 nM, 66 nM and 66.7 nM, respectively. Moreover, in assay [5], the Ka amounted to 1.5e+07 M⁻¹.

B2: 2D1-Fc (bivalent scFv-Fc of anti-KIT scFv 2D1) (Fc fusion, human)
chain: MAQVKLQESGGGLVQPGGSLRLSCAASGFTFDSYAMSWVRQAPGKGLEWVSYITSSSSTIYYVDSVKGRFTISRDNAKNSLYLQMNSLRDEDTAVYYCARLRNSEGYWYFDLWGRGTLVTVSSGGGGSGGGGSGGGGSQSALTQDPAVSVALGQTVRITCQGDSLRSYFASWYQQKPGQAPLLVMYGQNIRPSGIPDRFSGSSSGNSASLTITGAQAEDEADYYCNSRDSSYNHWVFGGGTKLTVLG[human IgG1 Fc not spelt out]
notes: domain: hinge domain and the 2 constant domains; also called 2D1 scFv-Fc; 2D1-scFv-Fc
Take B2: the EC50 in assay [6] was determined as 0.6 nM; in assay [1], 0.067 µg/mL. Further, the koff in assay [2] came to 0.00563 s⁻¹. In addition, the Kd is 0.61 nM in assay [3] and 173 nM in assay [4]. Also, in assay [5], the Ka was found to be 5.79e+06 M⁻¹.

Usually EC50 stands for the concentration needed to bring the measured effect to its halfway point. For orientation: koff means a measure of how fast the partners let go of each other.

Values taken from US20160264680A1 (INSERM INSTITUT NATIONAL DE LA SANTE ET DE LA RECHERCHE …, published 2016).
